Where “and” joins values, the source holds several entries; their conditions need not be identical. Identical values can stand only once. The full ranking holds about 13,000 compounds; the median of “IFI” is about 4, and the highest 2% start at about 17. Some of the results follow.
Assay: GSK_TCMDC: Inhibition Frequency Index (IFI). The number of non-kinase HTS assays where a compound showed > 50 % inhibition, expressed as a percentage of the number of such assays in which the compound was tested (-0 is zero)
Type: functional

SMILES | IFI
N#Cc1ccc2c(c1)CN(CCC1CCC(NC(=O)c3cc4cc(OC(F)(F)F)ccc4[nH]3)CC1)CC2 (stereo not drawn) | 2.24%
C=CCc1cccc(C)c1OCCCON1C(=N)N=C(N)NC1(C)C | 4.29%
O=C(Nc1cccc(-c2nn3ccccc3c2-c2ccnc(Nc3ccccc3)n2)c1)c1cc(F)ccc1F | 4.9%
Nc1nc(Nc2cccc(O)c2)nc2ccccc12 | 5.04%
CSc1c(CNCCCNc2cc(=O)c3ccccc3[nH]2)[nH]c2ccccc12 | 4.9%
CC1(C)NC(N)=NC(=N)N1OCCCOc1cc(Cl)ccc1Cl | 8.27%
Cc1ccc(NC(=O)c2cc([N+](=O)[O-])ccc2NCc2cccnc2)cc1Cl | 2.4%
Clc1ccc(OC2CCC(Cn3ccnc3)(c3ccc(Cl)cc3Cl)CC2)c(Cl)c1 (stereo not drawn) | 6.62%
Nc1nc(N)c2c3c(ccc2n1)NCCC3 | 2.48%
COc1ccc(CNCC(C)(C)c2nc(-c3ccc(Cl)c(O)c3)c(-c3ccncc3)[nH]2)cc1 | 6.38%
CN1CCc2ccc(NC(=O)Nc3ccc(-c4ccccc4)cc3)cc2C1 | 7.02%
CS(=O)(=O)c1ccc(CCNCc2ccc(-c3ccc(CN(C(=O)C4CC(=O)c5ccccc54)C4Cc5ccccc5C4)cc3)nc2)cc1 (stereo not drawn) | 6.99%
C=C[C@]1(C)C[C@@H](OC(=O)c2n[nH]c3ccccc3c2=O)[C@]2(C)[C@H](C)CC[C@]3(CCC(=O)[C@H]32)[C@@H](C)[C@@H]1O | 2.92%
CC(C)(CNCCOc1ccc(Cl)cc1)c1nc(-c2ccnc(N)n2)c(-c2ccc(Cl)c(O)c2)[nH]1 | 6.29%
COc1cccc(OC)c1CN1CCC(N(C)CCCCCCCCN2CCC(OC(=O)Nc3ccccc3-c3ccccc3)CC2)CC1 | 13.1%
O=C(NCc1ccc(Cl)c(Cl)c1)c1ccc(-c2nc3cc(F)c(F)cc3[nH]2)cc1 | 0.73%
CCC(Cc1cnc2nc(N)nc(N)c2n1)c1ccc(C(=O)O)cc1 (stereo not drawn) | 1.43%
COc1cccc(CN2CCCC(OC(c3ccc(F)cc3)c3ccc(F)cc3)C2)c1O (stereo not drawn) | 2.99%
O=S(=O)(NCCN1CCCC1)c1ccc(-c2ccc(CNCc3ccccc3)cc2)cc1 | 8.65%
Cc1ccc(-c2ccc3c(c2)C=C(C(=O)NCC2CCN(CC4CCN(C(=O)/C=C/c5ccc(Cl)c(Cl)c5)CC4)CC2)CCC3)cc1 | 7.86%
CC(C)(C)NS(=O)(=O)c1cc(C(=O)N2CCC(CCN3CCC(O)(c4cccc(C(F)(F)F)c4)CC3)(c3cccc(F)c3)CC2)c(Cl)cc1F | 5.67%

SMILES | IFI
CCCNCc1ccc(-c2ccc(CN(CCOC)C(=O)c3nn(-c4ccccc4)nc3C)cc2)nc1 | 4.51%
COc1ccc(C(=O)Nc2cc(Br)c3c(c2)CNCC3)cc1C(F)(F)F | 4.96%
CCn1c(-c2nonc2N)nc2c(-c3cccc(NC(=O)Nc4ccc5c(c4)CCC5)c3)ncc(OCCCN)c21 | 14.8%
O=C(/C=C/c1ccc(Cl)c(Cl)c1)NCCCCCN1CCC(c2c[nH]c3ccccc23)C(O)C1 (stereo not drawn) | 3.5% and 2.96%
O=C(NCCSCc1c(F)cccc1Cl)c1cnc2c(c1)nc(-c1c[nH]c(-c3ccccc3)n1)n2CCc1c[nH]cn1 | 2.99%
N#Cc1ccc(CN2CCCN(Cc3cccc(NC(=O)c4ccc(Cl)c(Cl)c4)c3)CC2)cc1 | 4.05%
Cn1c(NC(=O)c2ccc(CNC(=O)c3ccc(O)c(-c4ccc(Cl)c(Cl)c4)c3)cc2)nc2ccccc21 | 0.74%
CCN1CCCC(CNC(=O)/C(=C/C=C/c2cc3cc(Cl)c(Cl)cc3[nH]2)OC)C1 (stereo not drawn) | 10.3%
Cc1ccc(C)c2sc(N3CCN(C(=O)c4ccc([N+](=O)[O-])o4)CC3)nc12 | 2.78%
CN(C)CCN(Cc1ccccc1-c1ccc(CNCCc2ccccc2)cc1)C(=O)NC1CCCCC1 | 11.9%
COc1ccc2ncc(F)c([C@@H](O)CN3CCC(NCc4cc5c(cn4)OCS5)CC3)c2c1 | 3.7%
O=C(/C=C/c1ccc(Cl)c(Cl)c1)NCCCCCN1CCC(CCNC(=O)C2(c3ccc(Cl)cc3)CC2)CC1 | 14.3%
COCCN1CCN(Cc2ccc(-c3cccc(-c4nc5ccccc5[nH]4)c3)cc2)CC1 | 0%
CCN(CC)CCCC(C)Nc1ccnc2ccc(-c3ccccc3)cc12 (stereo not drawn) | 0.72%
CN(C)c1ccc(CN2CCC(NC(=O)c3ccc(-c4ccc(N(C)C)cc4)s3)CC2)cc1 | 15.5%
CN(C)CCOc1cc(NC(=O)Nc2ccc(Cl)cc2C(F)(F)F)ccc1I | 1.43%
COc1cccc2c(NCCNc3ccnc4c(OC)cccc34)ccnc12 | 0.75%
O=C(Nc1cccc(-c2nn3ccccc3c2-c2ccnc(Nc3cccc(-c4cnco4)c3)n2)c1)C1CCCCC1 | 7.25%
CC(C)NCc1ccc(OCc2cccc(COc3ccc(CNC(C)C)cc3I)c2)c(I)c1 | 17.6%
O=C(NCCc1ccccc1)N(Cc1ccccc1-c1cccc(CNCCc2ccccc2)c1)C1CCN(Cc2ccccc2)CC1 | 12%
Cn1nc(-c2ccccc2F)c2cc(C(=O)NC3CCN(Cc4ccccc4)CC3)sc21 | 2.1%

SMILES | IFI
O=C1C(c2ccccc2)=C(Nc2cccc([N+](=O)[O-])c2)c2ccccc21 | 4.65%
Cc1cc(N2CCCCC2)nc2ccc(NC(=O)c3cccc([N+](=O)[O-])c3)cc12 | 3.74%
CCN(CC)CCOc1ccc(C(O)(C#CC(O)(c2ccc(OCCN(CC)CC)cc2)c2ccc([N+](=O)[O-])cc2)c2ccc([N+](=O)[O-])cc2)cc1 (stereo not drawn) | 5.84%
CC(C)(C)c1ccc(/C=C/C(=O)NCCCCCN2CCC(c3c[nH]c4ccccc34)CC2)cc1 | 4.55%
CCCCc1ccc2ncc(C(=O)OCC)c(O)c2c1 | 0.78%
Cc1noc(C)c1-c1ccc(C(=C2CCCCCC2)c2ccc(O)cc2)cc1 | 8.66%
CN1CCC(N(Cc2ccc(-c3ccc(C(F)(F)F)cc3)cc2)C(=O)Cn2cc(Cc3cnn(C)c3)c(=O)nc2SCc2cccc(F)c2F)CC1 | 8.15%
c1ccc2c(CNCCCN3CCN(CCCNCc4c5ccccc5cc5ccccc45)CC3)c3ccccc3cc2c1 | 15.3%
CCc1cn2c3c(cc(C(=O)N[C@@H](Cc4cccc(F)c4)[C@H](O)CNC4CCOCC4)cc13)N(C)S(=O)(=O)CC2 | 3.13%
COc1cc2ccccc2cc1OCCCN1CCN(CC(c2ccc(F)cc2)N2CCN(C(C)C)CC2)CC1 (stereo not drawn) | 10.3%
COc1ccc2nccc([C@@H](O)CN3CCC(NCCc4c[nH]c5ccccc45)CC3)c2c1 | 1.52%
CC(C)(C)c1ccc(C(=O)Nc2ccc(NC(=O)c3ccc([N+](=O)[O-])o3)cc2)cc1 | 0.75%
CS(=O)(=O)c1cccc(-c2cnc(N)c3cc(-c4ccc5c(c4)OCO5)ccc23)c1 | 4.48%
COc1ccc(-c2ccc(NC(=O)c3cccc(C#N)c3)cc2)cc1CN1CCNCC1 | 2.97%
CCc1ccc(NC(=O)c2cccc(CN3CCCN(CC4CCCCC4)CC3)c2)cc1 | 8.63%
COc1ccc(CNc2nccc3ccc(-c4ccc(N)nc4)cc23)cc1 | 1.33%
COc1ccc(CCNCCCCCCNCCc2ccc(OC)c(OC)c2Cl)c(Cl)c1OC | 2.94%
COc1ccc(NC(=O)C2CCN(CCCCCNC(=O)/C=C/c3ccc(Cl)c(Cl)c3)CC2)cc1 | 5.94%
CC(=O)N(Cc1ccc(CC(C)NCCc2cccc(Cl)c2)cc1)Cc1ccc(CC(C)NCCc2cccc(Cl)c2)cc1 (stereo not drawn) | 15.5%
Nc1ccc(-c2nc3cc(Cc4ccc5[nH]c(-c6ccc(N)cc6)nc5c4)ccc3[nH]2)cc1 | 6.57%
CCN(CC)CCc1ccc2c(=O)cc(CCc3cccc(F)c3F)n(CC(=O)N(C)Cc3ccc(-c4ccc(C(F)(F)F)cc4)cc3)c2c1 | 9.93%

SMILES | IFI
O=c1[nH]ccc2nc(N[C@@H]3CCNC3)nc(Nc3cc(Cl)cc(Cl)c3)c12 | 16.7%
CO/C(=C\C=C\c1cc2cc(Cl)c(Cl)cc2[nH]1)C(=O)NCCCN1CCCC[C@@H]1C | 12.9%
O=C(Nc1cccc(CN2CCCN(Cc3cccc(Cl)c3)CC2)c1)c1ccc(Br)cc1 | 10.2%
CCn1ccc2c(N3CCCS3(=O)=O)cc(C(=O)N[C@@H](Cc3ccccc3)[C@H](O)CNC(C)(C)CCCC(C)C)cc21 | 4.48%
CCOC(=O)c1ccc(NC(=O)Nc2ccc(-c3ccc(-c4nc5cc(C(F)(F)F)ccc5[nH]4)cc3)cc2)cc1 | 7.92%
CN(C)CCN(Cc1ccc(-c2ccc(CNCCc3ccccc3)cc2)nc1)C(=O)CCC1CCCC1 | 8.33%
CS(=O)(=O)c1ccc(CCNCc2ccc(-c3ccc(CNC4CCN(Cc5ccccc5)CC4)cc3)nc2)cc1 | 4.11%
COc1ccc(NC(=O)Nc2cccc(-c3ccc(-c4nc5cc(C(F)(F)F)ccc5[nH]4)cc3)c2)cc1 | 3.03%
CCCc1cc(Cc2cnc(N)nc2N)cc(CCC)c1OCCCCCC(=O)OCC | 13.1%
COc1cc2c(cc1OC)C(C)(C)CN1Cc3c(c(CO)c(OC)c(OC)c3OC)CC21 (stereo not drawn) | 0.82%
COc1ccc(C2c3ccccc3-c3nc(N)nc(N)c3C2C)cc1 (stereo not drawn) | 2.46%
N#Cc1ccc(CN2CCC(Oc3ccc(NC(=O)c4ccco4)cc3Cl)C2)cc1 (stereo not drawn) | 4.62%
Cc1cc(N[C@@H](Cc2ccccc2)C(=O)NCc2cccs2)nc(NCCc2cccnc2)n1 | 2.5%
NC(=O)c1sc(-n2cnc3ccc(OCC4CCNCC4)cc32)cc1OCc1ccccc1C(F)(F)F | 4.07%
COc1ccc2c(c1)CC1CN(CCCCNC(=O)c3ccc(NC(=O)c4cc(Cl)cc(Cl)c4)cc3)CCN1C2 (stereo not drawn) | 3.57%
O=C(Nc1ccnc(N2CCCN(Cc3cccc(O)c3)CC2)c1)c1ccc(F)cc1 | 2.44%
CN(C)CCCOc1ccc(CNCC(C)(C)c2nc(-c3ccc(Cl)c(O)c3)c(-c3ccncc3)[nH]2)cc1 | 6.16%
COc1ccc2ncc(F)c(CCN3CC[C@@H](CNCc4ccc5c(c4C)OCCO5)C3)c2n1 | 6.14%
CO/C(=C\C=C\c1cc2cc(Cl)c(Cl)cc2[nH]1)C(=O)NCCCN1CCN(c2cccc(Cl)c2)CC1 | 8.27%
N#Cc1cccc(NC(=O)Nc2cccc(-c3ccc(-c4nc5cc(C(F)(F)F)ccc5[nH]4)cc3)c2)c1 | 7%

Source: ChEMBL document CHEMBL1157539, “Thousands of chemical starting points for antimalarial lead identification” (Nature, 2010)
